The BET-seq Pho4 binding data (Le et al. 2018)
This is one part of the list. These are noisy estimates, calculated here from bound and input reads.

The sequences below were run against T1, Pho4 (S. cerevisiae) (UniProt P07270) (assay: relative binding free energy (BET-seq); higher = weaker binding). Conditions: reference: library average.
T1 sequence: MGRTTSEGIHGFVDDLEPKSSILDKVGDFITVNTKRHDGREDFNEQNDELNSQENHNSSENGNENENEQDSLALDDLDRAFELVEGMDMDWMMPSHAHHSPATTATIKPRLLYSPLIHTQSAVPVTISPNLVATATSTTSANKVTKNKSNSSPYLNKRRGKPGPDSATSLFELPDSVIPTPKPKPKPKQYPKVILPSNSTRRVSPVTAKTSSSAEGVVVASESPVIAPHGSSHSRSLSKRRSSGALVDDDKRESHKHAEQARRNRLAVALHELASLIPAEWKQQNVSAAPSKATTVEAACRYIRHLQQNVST

Sequence | relative binding free energy [kcal/mol]
AAATACACGTGGGGTC | 0
CGTTTCACGTGTGGCT | 0.2
GTCTTCACGTGTGCTT | 0.31
TGAGGCACGTGTTGAC | -0.07
GATTTCACGTGGTCTG | 0.24
GTTGACACGTGTAAGA | 0.09
TATTTCACGTGCTGGA | 0.22
GTGGACACGTGGGTCA | -0.21
GTCGGCACGTGGAGGT | -0.08
GCGTTCACGTGAGTTG | 0.49
TACATCACGTGTGGTA | 0
AGAATCACGTGGAGTA | 0.19
ATAATCACGTGTGTAT | 0.12
CGTGTCACGTGTATGA | 0.05
GTGTGCACGTGCTGGT | -0.09
GTGGACACGTGAAAGG | 0.24
TTAATCACGTGTATTT | 0.17
AAGGTCACGTGTATTA | 0.09
GTAGGCACGTGTGTTG | -0.07
TGGAGCACGTGGGAGC | -0.18
GGGCTCACGTGTTGGG | 0.22
ATTTTCACGTGTATGC | 0.15
TTTATCACGTGATGGT | 0.31
TGTATCACGTGTCTGA | 0.11
AGGATCACGTGTCTTA | 0.19

Sequence | relative binding free energy [kcal/mol]
TTAGGCACGTGAGGCC | 0.07
GGTCACACGTGCTGGG | -0.01
TGGGTCACGTGCGGGT | 0.01
GCTGACACGTGTGGCG | 0.14
TAAGACACGTGTGAGG | 0.16
GTGTTCACGTGAGACG | 0.26
TTTAGCACGTGTGCGC | -0.17
TCTGTCACGTGTTGGC | 0.23
GGGTTCACGTGCGTTG | 0.29
GGTGCCACGTGGATGT | -0.11
TGAGGCACGTGGAGCA | -0.19
AATCTCACGTGTGGGG | 0.28
TGTCACACGTGTAGAG | 0.24
TGGAACACGTGTGTTG | -0.03
TACATCACGTGTAGTG | 0.16
CATTTCACGTGGAGTG | 0.37
TACTGCACGTGGGAGT | -0.14
AGAGCCACGTGGTGGT | -0.21
TGCGGCACGTGGGGAT | -0.05
ATTTGCACGTGGGATC | 0.06
TTTATCACGTGTCCGG | 0.16
TGGGTCACGTGTTCGG | 0.12
AGGATCACGTGAGATG | 0.41
TGTACCACGTGCGGTG | -0.11
GGGGCCACGTGTGTTC | -0.02

Sequence | relative binding free energy [kcal/mol]
GAGTGCACGTGGTCGG | -0.1
GTTCGCACGTGGGGAA | -0.13
TGTGGCACGTGCGTGA | -0.15
ATGGGCACGTGGTGTA | -0.15
TTAGTCACGTGGGGTA | -0.11
TAGCGCACGTGGATGT | -0.13
CGTTTCACGTGCGTTG | 0.12
TCAGTCACGTGTTTTC | 0.22
TGCGTCACGTGGGGTG | -0.05
AGTAGCACGTGGGGGG | -0.22
TTCCTCACGTGTTGTG | 0.04
TTTATCACGTGGTATC | 0.11
AGTTTCACGTGAGTAA | 0.46
CATGTCACGTGTGTTC | 0.21
ACGTGCACGTGCAGTT | 0.15
GTGTCCACGTGTTGGA | 0.14
CAGGGCACGTGATGGA | 0.1
GCAGGCACGTGGAGTT | -0.17
TTGAGCACGTGTGATC | 0.03
TGGGCCACGTGAGTTG | 0.06
GATCGCACGTGGCGGG | -0.17
TTAATCACGTGGATCG | 0.24
TGGTGCACGTGCGGGA | 0.03
